From PubChem BioAssay AID720709 (National Center for Advancing Translational Sciences (NCATS), 2013)
In all, about 360,000 compounds went through this assay and about 520 (0.14%) were called active. The inconclusive results got no clear call from the source; some entries with a clear call stand among them for comparison. Calls follow the shape of the dose curve; as a rule, active = well fitted inhibition curve with a large enough effect; inconclusive = small, poorly fitted or top-dose-only effect; inactive = no such curve, though single readings can be large or run the other way. Potencies of inconclusive entries are left out as doubtful fits.

Each molecule was assayed against Rap guanine nucleotide exchange factor 3 (Homo sapiens) (UniProt O95398) (assay: qHTS for Antagonist of cAMP-regulated guanine nucleotide exchange factor 3 (EPAC1): primary screen). Settings: EPAC1 GEF assay, Rap1b-BODIPY-GDP exchange fluorescence; activity change, negative = inhibition: at 115 µM (top of the series).
Also: nearly all actives have a fitted effect of over 50% in size.
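For activity change, negative = inhibition in this document: plate controls were vehicle for no effect and positive control for full effect.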
Potency is read from the fitted curve at half-maximal effect; tags tell the direction and shape of the fitted curve.

UniProt O95398, sequence (O95398 whole entry, looked up): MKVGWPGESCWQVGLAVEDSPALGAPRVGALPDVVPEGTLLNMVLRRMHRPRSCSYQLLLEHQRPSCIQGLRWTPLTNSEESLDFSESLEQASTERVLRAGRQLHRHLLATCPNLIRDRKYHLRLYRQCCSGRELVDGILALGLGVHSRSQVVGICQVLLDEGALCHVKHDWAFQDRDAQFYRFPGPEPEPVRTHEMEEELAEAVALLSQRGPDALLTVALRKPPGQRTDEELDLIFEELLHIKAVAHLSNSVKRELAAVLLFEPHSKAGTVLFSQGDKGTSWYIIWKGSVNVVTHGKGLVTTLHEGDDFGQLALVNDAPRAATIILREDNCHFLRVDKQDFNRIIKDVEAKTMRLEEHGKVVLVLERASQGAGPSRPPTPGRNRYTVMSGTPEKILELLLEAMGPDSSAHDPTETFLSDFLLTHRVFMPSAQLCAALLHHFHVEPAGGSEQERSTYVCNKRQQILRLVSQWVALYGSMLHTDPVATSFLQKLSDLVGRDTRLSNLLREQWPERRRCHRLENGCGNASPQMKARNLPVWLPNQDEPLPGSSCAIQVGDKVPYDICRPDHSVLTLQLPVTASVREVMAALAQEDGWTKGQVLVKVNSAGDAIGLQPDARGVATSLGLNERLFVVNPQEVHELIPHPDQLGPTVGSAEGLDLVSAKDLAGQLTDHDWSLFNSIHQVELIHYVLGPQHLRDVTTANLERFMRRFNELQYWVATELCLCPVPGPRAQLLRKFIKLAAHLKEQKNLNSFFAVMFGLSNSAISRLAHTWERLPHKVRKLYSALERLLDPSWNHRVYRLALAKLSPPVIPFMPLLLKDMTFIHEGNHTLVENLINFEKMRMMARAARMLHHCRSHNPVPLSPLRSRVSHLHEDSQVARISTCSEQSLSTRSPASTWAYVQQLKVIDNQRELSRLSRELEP

| Structure (SMILES) | Potency | activity change, negative = inhibition |
| --- | --- | --- |
| Cc1cc(O)c2c(c1O)C(=O)[C@]13C(=C2O)C(=O)[C@@H]2[C@@H](O)[C@H]1[C@@H]1[C@H](O)[C@H]3C(=O)C3=C(O)c4c(O)cc(C)c(O)c4C(=O)[C@]312 | inconclusive [inhibitor, partial curve] | – |
| COc1ccc(C(=O)N/N=C/c2ccc3cccc(OCc4ccccc4)c3n2)cc1 | inconclusive [inhibitor, partial curve, poor fit] | – |
| O=C(Nc1cccc(Cl)c1)c1cnc[nH]1 | – | inactive: 3.21% |
| CCN(CC)CCOC(=O)c1ccc([N+](=O)[O-])cc1 | inconclusive [inhibitor, full curve] | – |
| Cc1cccc(C(=O)NC2CCCCCCC2)c1 | – | inactive: -27.7% |
| COc1cc(CNCc2ccc(OC)c(OC)c2OC)cc(OC)c1 | – | inactive: -8.73% |
| O=C(CN1C(=O)C2CCCCC2C1=O)Nc1cccc([N+](=O)[O-])c1 (stereo not drawn) | inconclusive [inhibitor, single point] | – |
| Cc1ccc(NC(=O)CSc2nc(O)cc(=O)n2-c2ccc(C)cc2)cc1 | – | inactive: -19.1% |
| COc1ccc(C(=O)c2oc3ccc(OC)cc3c2N)cc1 | inconclusive [inhibitor, single point] | – |
| Cc1ccc(SC/C(O)=C(\C#N)c2nc3ccccc3s2)cc1 | – | inactive: -11.2% |
| CC(C)(C)Cc1c(-c2ccc(C#N)cc2)nc2c(Cl)cc(C(F)(F)F)cn12 | inconclusive [inhibitor, full curve, poor fit] | – |
| COc1cc(/C=N/NC(=O)CN(Cc2ccccc2)S(=O)(=O)c2ccc3c(c2)OCCO3)ccc1O | inconclusive [inhibitor, single point] | – |
| COc1ccc(OC)c(C2CC(=O)N3CN(c4ccc(C)c(Cl)c4)CSC3=C2C#N)c1 (stereo not drawn) | inconclusive [inhibitor, single point] | – |
| CSc1ccc2c(c1)C(N1CCN(C)CC1)Cc1ccccc1S2 (stereo not drawn) | inactive | – |
| Fc1ccc(-c2ccnc3nc(N4CCOCC4)nn23)cc1 | – | inactive: 0% |
| Cc1ccc(S(=O)(=O)N2CCC(C(=O)Nc3ccccc3N3CCCC3)CC2)c(C)c1 | inconclusive [inhibitor, partial curve] | – |
| O=C(NC(c1ccc(Cl)cc1)c1c(O)ccc2ccccc12)c1ccccc1 (stereo not drawn) | – | inconclusive: -34.5% [inhibitor] |
| O=C(NC1CCCC1)c1cccc2c1C(=O)c1ccc(N3CCCCC3)cc1S2(=O)=O | – | inactive: -8.03% |
| O=[N+]([O-])c1cc(C(F)(F)F)cc([N+](=O)[O-])c1NN=C1CCCCC1 | inconclusive [inhibitor, full curve, poor fit] | – |
| CC(=O)Nc1ccc(N(C(=O)c2ccco2)C(C(=O)NC2CCCCC2)c2ccccc2)cc1 (stereo not drawn) | inconclusive [inhibitor, single point] | – |
| COc1cccc2c1-c1c(O)cccc1C2=O | – | inactive: 5.99% |
| Cc1ccccc1NC(=O)Cn1c(O)c(N=NC(=O)c2ccccc2O)c2ccccc21 | inconclusive [inhibitor, single point] | – |
| Cc1c(NC(=S)N/N=C\c2ccccc2O)c(=O)n(-c2ccccc2)n1C | inconclusive [inhibitor, single point] | – |

| Structure (SMILES) | Potency | activity change, negative = inhibition |
| --- | --- | --- |
| Oc1csc(Cc2nc(-c3ccccc3F)cs2)n1 | – | inactive: 5.42% |
| CC(=O)Nc1ccc(S(=O)(=O)/N=C2/NC(=O)/C(=C\c3ccco3)S2)cc1 | inconclusive [inhibitor, partial curve] | – |
| CCCCc1ccc(NC(=O)CSC2=NN3CCCC(=O)N=C3S2)cc1 | inconclusive [inhibitor, single point] | – |
| COc1cccc(CNC(=O)C(NS(=O)(=O)c2ccc3c(c2)CCN3C(C)=O)C(C)C)c1 (stereo not drawn) | inconclusive [inhibitor, partial curve, poor fit] | – |
| CC1=NN(c2ccccc2)C(=O)/C1=C/C=C/C=C/N(C)C | inconclusive [inhibitor, full curve] | – |
| CCN(CC)S(=O)(=O)c1ccc(N2CCOCC2)c(NC(=O)COc2ccc(C#N)cc2)c1 | inconclusive [inhibitor, single point] | – |
| CC[C@@]1(c2ccccc2OC)ON(c2ccccc2C(F)(F)F)C1=O | – | inactive: -21.8% |
| C/C=C/C(=O)N1CC2(CC(c3cccc(NC(=O)CC)c3)=NO2)C[C@H]1C(N)=O (stereo partly drawn) | inconclusive [inhibitor, partial curve] | – |
| CCCCCCCCCS(=O)(=O)N/N=C/c1cccc([N+](=O)[O-])c1 | inconclusive [inhibitor, partial curve] | – |
| CSc1nc(C)cc(C)c1C#N | – | inactive: 1.49% |
| O=C(/C=C/c1ccc(Br)o1)OCc1nc2ccsc2c(=O)[nH]1 | inconclusive [inhibitor, partial curve] | – |
| N/C(=N\OC(=O)COc1ccc2ccccc2c1Br)c1ccccn1 | – | inactive: -11.5% |
| CC(C)C(=O)NC(c1ccccc1)c1cc([N+](=O)[O-])c2cccnc2c1O (stereo not drawn) | active: 56.2 µM | – |
| C[C@H]1CN([C@@H](C)CO)C(=O)Cc2cc(NC(=O)CCN3CCOCC3)ccc2O[C@@H]1CN(C)Cc1ccc(Oc2ccccc2)cc1 | inconclusive [inhibitor, full curve] | – |
| O=C(CSc1nc2ccccc2s1)CSc1nc2ccccc2s1 | – | inactive: -20% |
| COC(=O)c1sc(S(=O)(=O)Nc2ccc(Br)cc2)c(C(=O)OC)c1C | inconclusive [inhibitor, single point] | – |
| COCCN(C(=O)COC(=O)Cc1coc2cc3c(cc12)CCC3)c1c(N)n(Cc2ccccc2)c(=O)[nH]c1=O | inconclusive [inhibitor, partial curve, poor fit] | – |
| NS(=O)(=O)c1ccc(CCNC(=O)c2ccc3nccnc3c2)cc1 | inconclusive [inhibitor, partial curve] | – |
| COc1ccc(C(=O)N/N=C/c2ccc(OC)c(COc3ccc(F)cc3)c2)cc1 | inconclusive [inhibitor, partial curve] | – |
| CC(C)N(C(=O)Nc1ccc2nsnc2c1)C(C)C | inconclusive [inhibitor, full curve] | – |
| O=C(COc1ccc2c(c1)OCO2)Nc1ccccc1C(F)(F)F | – | inactive: 3.67% |
| CCOc1ccc(N(CC(=O)Nc2ccccc2F)S(=O)(=O)c2c(C)[nH]c(=O)[nH]c2=O)cc1 | inconclusive [inhibitor, full curve] | – |
| COCCC(=O)N1CCC(Oc2ccc(C(=O)NCCc3cn[nH]c3)cc2)CC1 | inconclusive [inhibitor, single point] | – |

| Structure (SMILES) | Potency | activity change, negative = inhibition |
| --- | --- | --- |
| CC(C)(C)OC(=O)N1CCN(C(=O)c2[nH]cnc2C(=O)Nc2ccon2)CC1 | inconclusive [inhibitor, full curve, poor fit] | – |
| COc1cc(OC)cc(C(=O)N2CCC(C(=O)Nc3ccc4c(c3)OCCO4)CC2)c1 | inconclusive [inhibitor, partial curve] | – |
| COc1cc(OC)cc(C2=Cc3ccc(OC)cc3C(CC(C)=O)N2c2ccc(-c3cncnc3)cc2)c1 (stereo not drawn) | inconclusive [inhibitor, single point] | – |
| COc1ccc(/C=C2\SC(=S)N(CCCC(=O)Nc3cc(C)on3)C2=O)cc1OC | – | inactive: 15.8% |
| CCCOc1ccc(/C=C2/C(=O)ON=C2C)cc1OCC | – | inactive: -6.68% |
| Cc1csc2c(N3CCC(C(=O)O)CC3)ncnc12 | – | inactive: 4.35% |
| COc1cc(/C=N/NC(=O)c2cc(O)cc(O)c2)ccc1OC(=O)c1ccccc1 | inconclusive [inhibitor, partial curve] | – |
| COc1ccc(CS(=O)(=O)CC(C)(O)c2ccccc2)cc1 (stereo not drawn) | inconclusive [inhibitor, partial curve] | – |
| Cc1onc(-c2ccccc2)c1NC(=O)N(Cc1ccccc1)C(C)C | – | inactive: -5.6% |
| CCOc1ccc(OCC(=O)OCn2c(SC)nnc(C)c2=O)cc1 | – | inactive: 0.442% |
| Cc1cc(O)ccc1Nc1nc(-c2cccnc2)cs1 | inconclusive [inhibitor, full curve, poor fit] | – |
| CCN(CC)C(=O)Cn1cnc2c1c(=O)n(C)c(=O)n2C | – | inactive: -7.39% |
| C/C(=N\Nc1nc2ccccc2[nH]1)c1ccc2c(c1)OCO2 | – | inactive: -25.6% |
| O=c1c(-c2c(O)cc(O)c3c(=O)cc(-c4ccc(O)cc4)oc23)c(-c2ccc(O)cc2)oc2cc(O)cc(O)c12 | active: 56.2 µM | – |
| O=C(c1cccs1)N1C[C@H](n2cc(C3CC3)nn2)[C@@H](O)C[C@@H]1c1ccc(Cl)cc1 | – | inactive: 7.45% |
| Cc1ccccc1S(=O)(=O)N1C[C@H]2[C@H]3C(=O)N(c4ccccc4)C(=O)[C@H]3CC(=O)[C@H]2[C@@H]1c1ccc(Cl)cc1 | inconclusive [inhibitor, partial curve, poor fit] | – |
| O=C(CN=C1NS(=O)(=O)c2ccccc21)OCC(=O)c1cc(F)ccc1F | inconclusive [inhibitor, partial curve] | – |
| Cc1ccc(NC(=O)CS(=O)CC(=O)NC(C)CCc2ccco2)cc1Cl (stereo not drawn) | inconclusive [inhibitor, full curve, poor fit] | – |
| CC(=O)Oc1ccc(S(=O)(=O)c2ccc(OC(C)=O)cc2)cc1 | – | inactive: 9.3% |
| Cc1cc(N2CCN(S(=O)(=O)c3ccc(Cl)c(Cl)c3)CC2)c2ccccc2n1 | – | inactive: 2.64% |
| COc1ccc(C2=NS(=O)(=O)N(C)C(C(=O)NCc3ccc4c(c3)OCO4)=C2)cc1OC | inconclusive [inhibitor, single point] | – |
| Cc1ccccc1NC(=S)NC(=O)/C=C/c1ccco1 | inconclusive [inhibitor, partial curve, poor fit] | – |
